Results reported in the supplement of paper PMC5655136.
Values come from read counts of a selection and are noisy.

Test system: NB7
Assay: fold depletion of shRNA, plasmid library share / infected cells without Dox share (9 days) (ratio); higher = more depleted after infection (more toxic, leaky expression from a Tet-inducible vector; NB7 is a neuroblastoma line without caspase-8)
Protocol: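 Pooled lethality screen in NB7 neuroblastoma cells infected with Dox-inducible pTIP shRNA libraries. The libraries tile every 21-mer of the Venus, CD95L or CD95 ORF / 3'UTR; each hairpin is the 21-nt sense sequence + CTCGAG loop + antisense. Cells were cultured 9 days with or without 100 ng/ml Dox. shRNA representation was measured by deep sequencing of the genomic inserts, normalised to the total reads per subpool and averaged over technical replicates. Fold depletion is the plasmid library share / infected cells without Dox share (mean of 2 biological replicates), and the -Dox/+Dox share ratio is the mean of 4 replicate pairings; higher values mean more depletion (toxicity).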

[1] = shRNA pool: CD95 ORF + CD95 3'UTR + Venus libraries
[2] = shRNA pool: CD95L ORF + CD95L 3'UTR + Venus libraries
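Also: shRNA barcodes quantified by deep sequencing of PCR amplicons from cellular DNA, counts expressed as percent of each subpool, ratio averaged over two biological duplicates.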

Row | Sequence | fold depletion of shRNA [1] | fold depletion of shRNA [2]
1 | AGCGCTGAAGAGCCAACATAT | 5.79 | 
2 | AGCGTATGACACATTGATTAA | 0.928 | 
3 | AGCGTGTCCGGCGAGGGCGAG | 1.51 | 
4 | AGCTACCAGTCCGCCCTGAGC | 0.386 | 
5 | AGCTACCTGGGGGCAGTGTTC |  | 9.45
6 | AGCTACTAATGATGTTTTCCT |  | 1.98
7 | AGCTACTGCACTACTGGGCAG |  | 0.578
8 | AGCTAGGGACTGCACAGTCAA | 0.697 | 
9 | AGCTATGACCTTTTGCTGAAA | 1.09 | 
10 | AGCTCGCCGACCACTACCAGC | 0.657 | 1.35
11 | AGCTGAAGGGCATCGACTTCA | 0.92 | 
12 | AGCTGACCCTGAAGCTGATCT | 1.93 | 3.01
13 | AGCTGAGGAAAGTGGCCCATT |  | 0.867
14 | AGCTGATCTGCACCACCGGCA | 1.44 | 1.23
15 | AGCTGCCCGTGCCCTGGCCCA | 1.38 | 0.723
16 | AGCTGGACGGCGACGTAAACG | 0.611 | 1.06
17 | AGCTGGAGTACAACTACAACA | 2.47 | 
18 | AGCTGGCTGTAAATACTGCTT | 2.61 | 
19 | AGCTGTTCACCGGGGTGGTGC | 0.997 | 1.18
20 | AGCTTATACATAGCAATGGTA | 1.27 | 

Row | Sequence | fold depletion of shRNA [1] | fold depletion of shRNA [2]
21 | AGCTTTGCCACCTCTCCATTT | 0.633 | 
22 | AGGAAAACCAAGGTTCTCATG | 1.01 | 
23 | AGGAAAATATGGGTTGCATTT |  | 3.64
24 | AGGAAAGCTAGGGACTGCACA | 27 | 
25 | AGGAACTCTAAGTATCCCCAG |  | 1.08
26 | AGGAAGACTGTTACTACAGTT | 1.53 | 
27 | AGGAAGTACAGAAAACATGCA | 1.74 | 
28 | AGGAATATGACGGAAGAACAT |  | 6.08
29 | AGGAATCTCAGACGTTTTTCG |  | 0.462
30 | AGGAATGCACACTCACCAGCA | 0.905 | 
31 | AGGAATTGCTCTTGTCATACC | 1.97 | 
32 | AGGACACCTTTTAACTCACCT |  | 3.46
33 | AGGACATGGCTTAGAAGTGGA | 1.26 | 
34 | AGGACATTACTAGTGACTCAG | 1.23 | 
35 | AGGACGACGGCAACTACAAGA | 1.21 | 1.43
36 | AGGACGGCAACATCCTGGGGC | 1.11 | 0.719
37 | AGGACGGCGGCGTGCAGCTCG | 0.621 | 2.08
38 | AGGAGAGTATTACTAGAGCTT | 1.71 | 
39 | AGGAGCTGAGGAAAGTGGCCC |  | 0.46
40 | AGGAGCTGGCAGAACTCCGAG |  | 6.79

Row | Sequence | fold depletion of shRNA [1] | fold depletion of shRNA [2]
41 | AGGAGCTGTTCACCGGGGTGG |  | 1.36
42 | AGGAGGACGGCAACATCCTGG | 0.714 | 
43 | AGGAGTACACAGACAAAGCCC | 1.51 | 
44 | AGGAGTGTATGCAGAGGATGA | 5.13 | 
45 | AGGATGAAAGATTAAGATTAT | 1.57 | 
46 | AGGATTGGGCCTGGGGATGTT |  | 29.4
47 | AGGATTTAAGGGATGGAAAAG |  | 2.57
48 | AGGATTTTTTTGCCCCTTGTG | 0.527 | 
49 | AGGCAAGTCCAACTCAAGGTC |  | 0.818
50 | AGGCACCGAGAATGTTGTATT |  | 3.37
51 | AGGCAGATTGAAAAGGACACC |  | 1.38
52 | AGGCCAACTTCAAGATCCGCC | 1.17 | 2.08
53 | AGGCCAATGCCCCACTGGCAG |  | 1.97
54 | AGGCCACCCCAGTCCACCCCC |  | 35.2
55 | AGGCCACTTTGCCTCTAAATT | 0.929 | 
56 | AGGCCTGCATCATGATGGCCA | 1.84 | 
57 | AGGCTAACCCCACTCTATGAA | 40.1 | 
58 | AGGCTACGTCCAGGAGCGCAC | 0.492 | 0.675
